We go through 48 molecules from PubChem BioAssay AID1159614 (National Center for Advancing Translational Sciences (NCATS), 2016).

About 65 (0.1%) of roughly 45,000 compounds were called active. Calls come from the whole dose curve; as a rule, active = well fitted activation curve with a large enough effect; inconclusive = small, poorly fitted or top-dose-only effect; inactive = no such curve, though single readings can be large or run the other way. The list shows a part of the results.

Sequence of UniProt P54803 (P54803 whole entry, looked up): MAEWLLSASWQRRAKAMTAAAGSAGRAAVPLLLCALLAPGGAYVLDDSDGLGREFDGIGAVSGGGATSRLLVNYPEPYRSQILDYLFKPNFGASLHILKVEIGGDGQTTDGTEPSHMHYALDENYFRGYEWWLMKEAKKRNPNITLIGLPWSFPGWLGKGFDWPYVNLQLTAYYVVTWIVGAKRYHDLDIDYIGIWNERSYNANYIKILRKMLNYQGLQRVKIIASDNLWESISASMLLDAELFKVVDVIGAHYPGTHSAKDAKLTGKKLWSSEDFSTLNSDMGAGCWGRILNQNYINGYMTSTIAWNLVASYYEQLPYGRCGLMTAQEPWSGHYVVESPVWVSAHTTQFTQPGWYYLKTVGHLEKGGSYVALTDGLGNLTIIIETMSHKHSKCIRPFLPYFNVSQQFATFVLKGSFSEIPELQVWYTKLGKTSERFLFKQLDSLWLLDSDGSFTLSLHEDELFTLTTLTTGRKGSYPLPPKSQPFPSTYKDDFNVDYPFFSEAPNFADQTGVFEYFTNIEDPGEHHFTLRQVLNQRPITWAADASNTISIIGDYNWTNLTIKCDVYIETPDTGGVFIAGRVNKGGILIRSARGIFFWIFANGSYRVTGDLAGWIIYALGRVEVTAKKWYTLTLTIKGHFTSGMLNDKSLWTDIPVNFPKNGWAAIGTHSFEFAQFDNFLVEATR

The target in this assay is Galactocerebrosidase (Homo sapiens) (UniProt P54803). As to the kind of experiment: A Novel Cell-Based Assay to Identify Small Molecules for B -Galactocerebrosidase. Note: 0% is about no effect; nearly all actives have a fitted effect of over 65% in size. As to conditions: 145M-Twi-hGALC-G270D cells (Twitcher mouse brain line with human GALC G270D), HMU-beta-Gal fluorescence, 48 h; series mostly up to 57.5 µM; activation: at the top concentration. Put shortly:
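Live 145M-Twi cells (Twitcher mouse brain-derived, GALC-null) stably expressing human GALC-G270D, with a wild-type GALC line, were compound-treated. Residual GALC activity was then read as fluorescence from 0.1 mM final HMU-β-gal at pH 5.2; higher signal means activation.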
As to `Cc1ccc(CNC(=O)CCN2C(=O)COc3ccc(C)cc32)cc1`, the “activation” value was inactive: -5.01%.

`Cc1ccsc1CN(C(=O)c1oc2ccc(F)cc2c1C)C1CCS(=O)(=O)C1` (stereo not drawn): the “activation” value was inactive: -21%.

In the case of `CCOc1ccccc1NC(=O)N(Cc1ccc(F)cc1)C1CCN(CC)CC1`, the “activation” value is inactive: -20.7%.

Regarding `CCc1ccc(N2CCn3c2nc2c3c(=O)n(C/C=C/c3ccccc3)c(=O)n2C)cc1`, the “activation” value is inactive: -21.3%.

`Cc1ccc(CNC(=O)CC(C)CC2=NS(=O)(=O)c3ccccc3N2)cc1` (stereo not drawn): the “activation” value was inactive: -10.9%.

Consider `COC(=O)C1=C(C)NC(C)=C(C(=O)OCCN(C)Cc2ccccc2)C1c1cccc([N+](=O)[O-])c1` (stereo not drawn), for which the “activation” value is inactive: -12.9%.

As to `COc1ccc(NC(=O)c2c(NCc3ccc(N(C)C)cc3)sc3c2CCC3)cc1`, the “activation” value was inactive: -14.2%.

Turning to `Cc1ccc(C)c(-n2c3nc(=O)[nH]c(=O)c-3cc3c(C)nn(-c4ccccc4)c32)c1`, the “activation” value is inactive: -2.74%.

For `CCc1ccc(NC(=O)c2ccc(F)c(S(=O)(=O)N3CCC4(CC3)OCCO4)c2)cc1`, the “activation” value is inactive: -3.22%.

For the molecule `COc1cccc(CNS(=O)(=O)c2cc3[nH]c(=O)c(=O)[nH]c3cc2C)c1`, the “activation” value is inactive: -6.71%.

As to `Cc1ccc(Nc2ncc(C(=O)N3CCN(c4ccc(F)cc4)CC3)c3ccccc23)cc1Cl`, the “activation” value was inactive: 2.45%.

Consider `Cc1ccc(NC(=O)C2CCCN2S(=O)(=O)c2cccc3nsnc23)c(C)c1` (stereo not drawn), for which the “activation” value was inactive: -11.3%.

As to `CCOc1ccc(-c2nonc2NC(=O)c2oc3cc(C)c(C)cc3c2C)cc1OCC`, the “activation” value was inactive: -22.2%.

As for `Cc1ccccc1Cn1c2ccccc2c2cnn(CC(=O)NC(C)CCc3ccccc3)c(=O)c21` (stereo not drawn), the “activation” value was inactive: -11.2%.

On to `CCc1ccc2oc(C(=O)Nc3c(C)n(C)n(-c4ccccc4)c3=O)cc(=O)c2c1`, for which the “activation” value is inactive: -6.42%.

As for `CCOC(=O)c1ccc(N2C(=O)c3n[nH]c(C)c3C2c2ccccc2OC)cc1` (stereo not drawn), the “activation” value was inactive: -11.8%.

As to `N#Cc1ccc(C(=O)NCc2ccc3c(c2)CCN3C(=O)c2ccc(F)cc2)cc1`, the “activation” value is inactive: -3.91%.

Take `Cc1cccc(Cn2nc(C)n3c(cc4cc(C)ccc43)c2=O)c1`: the “activation” value is inactive: -21.9%.

Take `Cc1cccc(CCNc2ncnc3onc(-c4ccc(Cl)cc4)c23)c1`: the “activation” value is inactive: 3.87%.

`COC(=O)c1ccc(NC(=O)CN(CCc2ccccc2)S(=O)(=O)c2ccc(OC)cc2)cc1`: the “activation” value is inactive: -18.2%.

As to `CCn1c(C(=O)NCc2ccc(OC(C)C)cc2)cc2oc3ccccc3c21`, the “activation” value was inactive: 4.05%.

Turning to `CCOc1ccc(-n2c(SCC(=O)N3CCC(C)CC3)nc3c([nH]c4ccccc43)c2=O)cc1`, the “activation” value was inactive: -7.28%.

With `Cc1ccc(C)c(N2CCN(c3ccc4cc(S(=O)(=O)N5CCC(C)CC5)ccc4n3)CC2)c1`, the “activation” value was inactive: -21.1%.

`Cc1ccc(C)c(N2CCN(C(=O)c3cc(C)nc4c3c(C)nn4-c3cccc(F)c3)CC2)c1`: the “activation” value was inactive: -8.3%.

In the case of `Cc1ccccc1OCC(=O)Nc1sc2c(c1C(=O)OC(C)C)CCCC2`, the “activation” value is inactive: -12.1%.

`CCOc1ccc(C(=O)NCCc2sc(-c3ccc(OC)c(OC)c3)nc2C)cc1`: the “activation” value is inactive: -16.2%.

On to `COc1ccc2c(CNCc3cccs3)c(C(=O)O)n(Cc3ccc(C)cc3)c2c1`, for which the “activation” value was inactive: -0.652%.

As for `Cc1nn(CC(=O)O)c(=O)c2cc3cc(F)ccc3n12`, the “activation” value is inactive: -9.74%.

Consider `COC(=O)c1ccc(C2c3c(oc4ccccc4c3=O)C(=O)N2c2nc(C)c(C(=O)OC)s2)cc1` (stereo not drawn), for which the “activation” value was inactive: -5.79%.

As for `O=C(Nc1cc(Cl)cc(Cl)c1)c1ccc2c(c1)N(Cc1cccc(Cl)c1)C(=O)c1ccccc1S2=O` (stereo not drawn), the “activation” value is inactive: -3.84%.

Regarding `COc1ccccc1NC(=O)c1cc(S(=O)(=O)N2CCN(c3ccccc3Cl)CC2)ccc1F`, the “activation” value was inactive: -9.39%.

Take `Cc1oc(-c2cccc(Cl)c2)nc1CS(=O)(=O)CC(=O)NCc1ccccc1Cl`: the “activation” value was inactive: -17.9%.

Regarding `CCCOc1ccc(C(=O)Nc2cc3c(cc2N2CCOCC2)n(C)c(=O)n3C)cc1`, the “activation” value was inactive: -15.5%.

As for `Cc1cccc(-n2c(=O)c3c(c4cc(C)ccc4n3C)n(CC(=O)NCC3CCCO3)c2=O)c1` (stereo not drawn), the “activation” value was inactive: -5.13%.

On to `CCCCCCCCCCCCOCCO`, for which the “activation” value is inactive: -15.4%.

As to `Cc1ccc2c(c1)c(=O)c1ccccc1n2CCCC(=O)Nc1cc(Cl)ccc1C`, the “activation” value is inactive: -9.8%.

In the case of `Cc1ccc(NC(=O)c2cnc(N3CCCCC3)c3ccccc23)c(C)c1`, the “activation” value was inactive: -14.1%.

With `COCCCNC(=O)C1CCN(C(=O)c2cnn(-c3ccccc3)c2-n2cccc2)CC1`, the “activation” value is inactive: -12.9%.

As to `CCCN1CCN(C(=O)Cn2c(-c3cccs3)cc3ccccc32)CC1`, the “activation” value is inactive: -8.1%.

Consider `COC(=O)c1c(Oc2ccc(OC)cc2)nnc(-c2ccccc2)c1-c1ccccc1`, for which the “activation” value is inactive: 0.524%.

For `CC(C)CC(=O)Nc1nc2nc(-c3ccccc3)cc(=O)n2[nH]1`, the “activation” value is inactive: -11.5%.

As to `CCCCOc1ccc(C2=NC(c3cccs3)=Nc3ccc(CC)cc3N2)cc1`, the “activation” value was inactive: -9.05%.

With `Cc1cc(N2CCCCC2)nc2ccc(NC(=O)/C=C/c3ccc(OC(C)C)cc3)cc12`, the “activation” value was inactive: -20.3%.

Turning to `COc1cccc(NC(=O)CN2C(=O)CSc3ccc(S(=O)(=O)N4CCCC4)cc32)c1`, the “activation” value is inactive: -8.45%.

Consider `Cc1ccc(CNC(=O)c2cccn2-c2nnc(N3CCCC3)s2)cc1`, for which the “activation” value is inactive: -12.8%.

For the molecule `Cc1ccc2c(CC(=O)Nc3ccc(S(=O)(=O)N4CCCCC4C)cc3)coc2c1` (stereo not drawn), the “activation” value is inactive: -19.5%.

Turning to `CCOc1ccccc1CNC(=O)c1ccc(N2Cc3ccccc3Oc3ncccc32)s1`, the “activation” value is inactive: -16.8%.

In the case of `COc1ccc(CNC(=O)CCCn2nc(C)c3sc4ccccc4c3c2=O)cc1OC`, the “activation” value was inactive: -7.91%.
